The campaign covered roughly 39,000 compounds. About 220 (0.56%) showed activity. The list shows a part of the results.
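Further: static incubation at 37 °C against the wild-type strain, values averaged over two biological replicates.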

The test has as its system Escherichia coli K-12 BW25113. Kind of test: relative growth (OD600 normalised to plate interquartile mean) (fraction); higher = less growth inhibition, active = 0.2 or less. The following applies: 50 µM; LB; incubation time: overnight (16-24 h).
Consider `C[C@@H]1CN([C@@H](C)CO)C(=O)c2cc(NC(=O)NC3CCCCC3)ccc2O[C@H]1CN(C)Cc1ccc(C(=O)Nc2ccccc2N)cc1`, for which the relative growth was inactive: 1.01. Then `COc1ccc(S(=O)(=O)N2c3ccc(Cl)cc3[C@](O)(c3ccccc3Cl)[C@@H]2C(=O)N2CCC[C@H]2C(N)=O)cc1OC`, with inactive: 1.02; and `Cn1cnc(S(=O)(=O)N2C[C@H](O)COC[C@@H]3O[C@@H](CC(=O)NCc4ccc(F)cc4)CC[C@H]32)c1`, with inactive: 0.99; and `COc1ccc(NC(=O)Nc2ccc3c(c2)C(=O)N([C@@H](C)CO)C[C@@H](C)[C@H](CN(C)S(=O)(=O)c2ccccc2)OCCCC[C@H](C)O3)cc1`, with inactive: 1.02. The value for `C[C@H](CO)N1C[C@H](C)[C@@H](CN(C)Cc2ccc(-c3ccccc3)cc2)Oc2ccc(NS(=O)(=O)c3ccccc3)cc2CC1=O` was inactive: 0.995; that for `NC(=O)CC1=NC(=O)CS1` was inactive: 1.02; that for `O=C(C[C@H]1CC[C@H]2[C@@H](COC[C@@H](O)CN2S(=O)(=O)c2ccc(Cl)cc2)O1)NCC1CCCCC1` was inactive: 0.99.

For the compound `CO[C@H]1CN(C)C(=O)c2ccc(NC(=O)Nc3cccc(Cl)c3)cc2OC[C@H](C)N(C(=O)Nc2c(C)noc2C)C[C@H]1C`, the relative growth is inactive: 0.986.

Consider `C[C@@H]1CCCCO[C@@H](CN(C)C(=O)Nc2ccc3c(c2)OCO3)[C@H](C)CN([C@H](C)CO)C(=O)c2cc(NS(=O)(=O)c3ccc(F)cc3)ccc2O1`, for which the relative growth is inactive: 1.01. Then `COc1ccc(S(=O)(=O)Nc2cccc3c2O[C@H](CN(C)S(=O)(=O)c2c(C)noc2C)[C@H](C)CN([C@@H](C)CO)C3=O)cc1`, with inactive: 0.981; and `CCC(=O)N[C@@H]1CC[C@H](CC(=O)OC)O[C@H]1CO`, with inactive: 0.989; and `C[C@@H]1CN([C@@H](C)CO)C(=O)c2cc(NC(=O)CCN3CCOCC3)ccc2O[C@@H]1CN(C)Cc1ccccc1`, with inactive: 1. The value for `C[C@@H]1CCCCO[C@H](CN(C)C(=O)c2ccccc2)[C@@H](C)CN([C@@H](C)CO)C(=O)c2cc(NS(=O)(=O)c3ccccc3)ccc2O1` was inactive: 0.956; that for `O=C(C[C@H]1C[C@H]2c3cc(NS(=O)(=O)c4ccc(F)cc4)ccc3O[C@H]2[C@H](CO)O1)NC1CCCCC1` was inactive: 1. Then `CCC(=O)NCc1nc(C)cc(N(C)C)n1`, with inactive: 1.04; and `COc1ccc2c3c([nH]c2c1)[C@@H](CO)N(C[C@]13CCN(CC1)C(=O)c1ccncc1)C(=O)c1ccncc1`, with inactive: 1; and `C[C@H](CO)N1C[C@H](C)[C@H](CN(C)Cc2ccncc2)OCCCC[C@H](C)Oc2ccc(NC(=O)Nc3ccc4c(c3)OCO4)cc2C1=O`, with inactive: 1.01. For the compound `CCCN(C)C[C@H]1OCCCC[C@@H](C)Oc2ccc(NC(=O)c3ccccc3)cc2C(=O)N([C@@H](C)CO)C[C@H]1C`, the relative growth is inactive: 1.02. The value for `C[C@@H]1CN([C@H](C)CO)C(=O)c2cccc(NC(=O)C3CC3)c2O[C@H]1CN(C)Cc1ccc2c(c1)OCO2` was inactive: 0.987; that for `O=C1NCCOc2ccc([N+](=O)[O-])cc21` was inactive: 0.984; that for `C=CCOC(=O)[C@@H]1[C@H]2C(=O)O[C@H](c3ccccc3)[C@H](c3ccccc3)N2[C@H](c2ccc(OCCOC(=O)[C@@H]3C[C@@H]4C(=O)N[C@@H](CCCCNC(C)=O)C(=O)N4[C@@H]3c3ccc(O)cc3)cc2)[C@@]12C(=O)Nc1ccccc12` was inactive: 1.06. Then `C[C@@H]1CN([C@@H](C)CO)C(=O)c2cc(C3=CCCCC3)cnc2O[C@H]1CN(C)C(=O)CN1CCOCC1`, with inactive: 0.99; and `Cc1ccc(-c2noc([C@H](C)c3ccc(CC(C)C)cc3)n2)cc1`, with inactive: 0.915; and `Cc1ccc(S(=O)(=O)N(C)C[C@@H]2OCCCC[C@H](C)Oc3ccc(NC(=O)Nc4ccccc4)cc3C(=O)N([C@@H](C)CO)C[C@@H]2C)cc1`, with inactive: 0.934.

As to `Cc1occc(=O)c1O`, the relative growth is inactive: 0.98. Then `COc1cccc(NC(=O)N(C)C[C@@H]2Oc3cc(Br)ccc3S(=O)(=O)N([C@@H](C)CO)C[C@H]2C)c1`, with inactive: 1.02; and `C[C@H]1CN([C@@H](C)CO)C(=O)c2cccc(NC(=O)C3CCOCC3)c2O[C@@H]1CN(C)S(=O)(=O)c1ccccc1`, with inactive: 1.03. The value for `C[C@H](CO)N1C[C@H](C)[C@H](CN(C)CC2CC2)OCCCC[C@H](C)Oc2ccc(NC(=O)Nc3ccc(C(F)(F)F)cc3)cc2C1=O` was inactive: 0.968. The value for `C[C@@H]1CN([C@@H](C)CO)C(=O)c2cc(NC(=O)c3ccncc3)ccc2O[C@@H](C)CCCCO[C@@H]1CN(C)C(=O)C1CCCCC1` was inactive: 1.01. As to `O=C(C[C@@H]1C[C@@H]2c3cc(NC(=O)Cc4ccncc4)ccc3O[C@@H]2[C@H](CO)O1)NCc1ccc2c(c1)OCO2`, the relative growth is inactive: 1.01. Then `CCCNC(=O)Nc1ccc2c(c1)C(=O)N(C)C[C@@H](OC)[C@H](C)CN(Cc1ccc(-c3ccccn3)cc1)[C@@H](C)CO2`, with inactive: 0.994. Then `CO[C@H]1C[C@H](O[C@H]2[C@H](C)O[C@@H](O[C@@H]3/C(C)=C/C[C@@H]4C[C@@H](C[C@]5(C=C[C@H](C)[C@@H](C6CCCCC6)O5)O4)OC(=O)[C@@H]4C=C(C)[C@@H](O)[C@H]5OC/C(=C\C=C\[C@@H]3C)[C@]54O)C[C@@H]2OC)O[C@@H](C)[C@@H]1O`, with inactive: 0.95; and `C[C@@H]1CN([C@H](C)CO)C(=O)Cc2cc(NC(=O)Nc3ccccc3)ccc2O[C@@H]1CN(C)C(=O)Nc1cccc2ccccc12`, with inactive: 1.02; and `Cc1noc(C)c1S(=O)(=O)N(C)C[C@H]1OCCCC[C@@H](C)Oc2ccc(NS(C)(=O)=O)cc2C(=O)N([C@H](C)CO)C[C@@H]1C`, with inactive: 0.938.

As to `C[C@H](CO)N1C[C@H](C)[C@H](CN(C)Cc2ccc(C(=O)Nc3ccccc3N)cc2)Oc2ccc(NC(=O)Nc3ccc4c(c3)OCO4)cc2CC1=O`, the relative growth was inactive: 1.02. Then `COc1ccc2c3c([nH]c2c1)[C@@H](CO)N(C[C@]13CN(C1)S(=O)(=O)c1cn(cn1)C)C(=O)Nc1ccc(cc1)F`, with inactive: 1.

These data come from the supplement of paper PMC9446081.
